# Data from the BET-seq Pho4 binding data (Le et al. 2018).
# The list shows a part of the results. Values were computed here from the reads of four pooled replicates and scatter widely.
# Molecular target: T1, Pho4 (S. cerevisiae) (UniProt P07270)
# T1 sequence: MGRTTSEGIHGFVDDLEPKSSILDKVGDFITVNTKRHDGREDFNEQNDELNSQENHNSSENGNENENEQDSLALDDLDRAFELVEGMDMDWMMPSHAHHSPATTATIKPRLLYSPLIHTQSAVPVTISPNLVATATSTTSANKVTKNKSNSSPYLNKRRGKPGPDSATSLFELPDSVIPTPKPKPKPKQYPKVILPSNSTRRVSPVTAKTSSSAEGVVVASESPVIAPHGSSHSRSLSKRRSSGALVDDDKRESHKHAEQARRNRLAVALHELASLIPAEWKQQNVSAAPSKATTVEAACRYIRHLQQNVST
# Experiment: relative binding free energy (BET-seq); higher = weaker binding
# Details: reference: library average
row,Sequence,relative binding free energy [kcal/mol]
1,GTGAGCACGTGAAGAT,0.25
2,TATGGCACGTGGATTG,0.05
3,TGTTGCACGTGATGCA,0.02
4,GGGGACACGTGTCTTT,0.03
5,GATCGCACGTGTTATG,0.16
6,TAGCTCACGTGTTTGT,0.18
7,TGTATCACGTGCGTTT,0.11
8,TTGTACACGTGGTGGG,0.04
9,GATATCACGTGTGTAA,0.14
10,TTGCTCACGTGGGGGC,0.09
11,CGAGTCACGTGATTGT,0.2
12,GGTGCCACGTGGTTCG,-0.04
13,TTTTTCACGTGGACGT,0.3
14,GTTTGCACGTGTATAG,0.14
15,TCTATCACGTGGTTGA,-0.06
16,ATATGCACGTGGTAGA,-0.1
17,GCTGGCACGTGAGGGG,0.26
18,TTAAACACGTGCTGGG,-0.15
19,TCTGGCACGTGAATTT,0.14
20,TGGGACACGTGGGATT,-0.05
21,GGTTTCACGTGTAAAG,0.29
22,AGTATCACGTGGAATA,0.28
23,CAATGCACGTGTGGTG,0.03
24,CGAGGCACGTGATAGG,-0.1
25,TGGGCCACGTGCTGGA,-0.13

row,Sequence,relative binding free energy [kcal/mol]
1,ATTGACACGTGAGGTT,0.19
2,TGTCACACGTGTCGGT,0.07
3,AGTAGCACGTGGAACG,0.12
4,TTTGTCACGTGCTCGA,0.07
5,TAATACACGTGCGTTT,0.07
6,TTGTTCACGTGCCTTG,0.19
7,GTAGGCACGTGAAAGG,0.27
8,GTAAGCACGTGATTGT,0.26
9,TATTGCACGTGAGAAT,0.26
10,GTCGGCACGTGAAGGT,0.27
11,ATAAACACGTGGTTGT,-0.08
12,GGGATCACGTGGGGGA,0.06
13,TGTACCACGTGGTTTA,-0.15
14,GGGTTCACGTGTTATC,0.34
15,TGAAGCACGTGCAGGG,-0.16
16,ATAAGCACGTGTAGGT,-0.15
17,AATGACACGTGATTGG,0.1
18,TTGTACACGTGTAATA,0.11
19,ATGGTCACGTGATATT,0.28
20,AAAGGCACGTGTGAGA,-0.08
21,GATTTCACGTGAGGGG,0.52
22,TGCTTCACGTGTTGGC,0.1
23,GTTTGCACGTGACAGT,0.01
24,ATGTGCACGTGTCTAG,0.04
25,ATTTCCACGTGGGAGG,0.05

row,Sequence,relative binding free energy [kcal/mol]
1,GTTGACACGTGTTTCG,0.11
2,GGGACCACGTGGGGTC,-0.16
3,GGGGTCACGTGTTATT,0.18
4,GTCTGCACGTGCTTGT,-0.02
5,TGAATCACGTGGGGGG,0.07
6,GAACTCACGTGGAGGG,0.3
7,CGGTACACGTGGTTAG,-0.04
8,GGAAGCACGTGAGGTG,0.1
9,AGTTTCACGTGTGAGT,0.22
10,GCTGTCACGTGATATG,0.24
11,GAGACCACGTGGGAGG,-0.05
12,TTCTTCACGTGGAAGG,0.38
13,GCCGGCACGTGGATGG,-0.08
14,TTTTGCACGTGTTCAT,-0.03
15,TGGGGCACGTGGTTTA,-0.13
16,CTGGGCACGTGAGCGT,0.16
17,TTAAGCACGTGGTGAT,-0.07
18,TGTGTCACGTGTATCA,-0.01
19,TTGGACACGTGGGCCG,-0.06
20,GGGGTCACGTGCAGGT,0.17
21,GTTGACACGTGGGGGT,-0.1
22,TAGGGCACGTGGCTAT,-0.08
23,TAAGGCACGTGTAGAA,-0.02
24,ACAGGCACGTGGTGCG,-0.18
25,CGTGGCACGTGGAGGG,-0.12

row,Sequence,relative binding free energy [kcal/mol]
1,TTGAGCACGTGAATGT,0.33
2,TGGACCACGTGTATGT,-0.1
3,TAGTACACGTGGTGCG,-0.15
4,GTTGGCACGTGAAACT,0.1
5,TCCGGCACGTGTGGTT,0.05
6,ATCGTCACGTGATTTG,0.21
7,GGGGTCACGTGCTAGA,0.21
8,GGTGGCACGTGTATCA,-0.1
9,TAGGTCACGTGGCGGG,0.06
10,AGGTGCACGTGTTTAC,-0.14
11,ATTAGCACGTGGCATT,-0.09
12,ATAGACACGTGGGCGT,-0.12
13,TATAGCACGTGTTTAG,-0.15
14,TGGTCCACGTGTTGTG,0.03
15,AAATGCACGTGTTATA,0.08
16,TCGGACACGTGAGTTT,0.31
17,TTTTTCACGTGTAAAG,0.29
18,TCGGGCACGTGGCAGG,-0.09
19,AGGGTCACGTGTTGAT,0.11
20,GGGATCACGTGACGTG,0.27
21,TTATACACGTGTAAGA,0.14
22,GAGGTCACGTGTGCGA,0.17
23,GGAACCACGTGCGGGG,0.03
24,TATTCCACGTGATTGT,0.14
25,TGGTTCACGTGCAGGT,0.28

row,Sequence,relative binding free energy [kcal/mol]
1,GAGCGCACGTGGAGGA,-0.03
2,TGGATCACGTGAGTTT,0.45
3,AGTAGCACGTGGCTGG,-0.16
4,GAAGGCACGTGTGGGG,-0.04
5,ATATGCACGTGAGGGT,0.12
6,GTGATCACGTGGTAGT,0.1
7,GACGCCACGTGGTGTG,0.05
8,TGTATCACGTGGAAGG,0.19
9,TAGTTCACGTGGGCTA,0.11
10,GATAACACGTGGGGGG,0.01
11,TGCGTCACGTGGTTTC,0.15
12,TCTTCCACGTGTGGGG,0.08
13,TGGTGCACGTGGCTTC,-0.04
14,GTCAGCACGTGGCTGG,-0.14
15,GTGCACACGTGGGTAG,-0.2
16,GGCTACACGTGGTGTT,0.16
17,CTGGGCACGTGGCAGT,-0.19
18,ATAGGCACGTGGGAAT,-0.22
19,TGGTGCACGTGATAGT,0.1
20,TATTTCACGTGTAGAC,0.47
21,ATGTTCACGTGTAATC,0.24
22,GGGATCACGTGGCGTC,0.19
23,GTGTTCACGTGTTCGG,0.38
24,AGTATCACGTGAATGT,0.33
25,GGTATCACGTGTGTTC,0.24

row,Sequence,relative binding free energy [kcal/mol]
1,GGATGCACGTGTTTCG,-0.06
2,ATGGGCACGTGGAGAG,-0.12
3,GATAACACGTGGTTTT,-0.05
4,GTGTTCACGTGAAGGC,0.4
5,TTGTACACGTGCGTTC,0.1
6,CTAGACACGTGAGGGT,0.27
7,CTTATCACGTGGTTGA,0.09
8,TTATTCACGTGTACTA,0.18
9,GTTATCACGTGAATCT,0.49
10,ATGATCACGTGTATTA,0.17
11,ATTAGCACGTGGAGGC,-0.07
12,GGTAGCACGTGATTTA,0.05
13,TAGATCACGTGAGTTA,0.4
14,TTTAACACGTGGTGTC,-0.15
15,CATGTCACGTGAGCGG,0.15
16,GACATCACGTGGGGCG,0.15
17,TTAGACACGTGGATAG,0.13
18,AGTAGCACGTGGAAGA,0.03
19,TGTGCCACGTGAAATG,0.2
20,GCTATCACGTGGGGGC,0.12
21,TAGACCACGTGGAGTG,0
